# The full ranking holds about 33,000 sequences; the median of “E-score (-0.5 to 0.5)” is about -0.035, and the highest 2% start at about 0.35. Some of the results follow.
# Molecular target: T1, Pdr3 (UniProt P33200)
# T1 sequence: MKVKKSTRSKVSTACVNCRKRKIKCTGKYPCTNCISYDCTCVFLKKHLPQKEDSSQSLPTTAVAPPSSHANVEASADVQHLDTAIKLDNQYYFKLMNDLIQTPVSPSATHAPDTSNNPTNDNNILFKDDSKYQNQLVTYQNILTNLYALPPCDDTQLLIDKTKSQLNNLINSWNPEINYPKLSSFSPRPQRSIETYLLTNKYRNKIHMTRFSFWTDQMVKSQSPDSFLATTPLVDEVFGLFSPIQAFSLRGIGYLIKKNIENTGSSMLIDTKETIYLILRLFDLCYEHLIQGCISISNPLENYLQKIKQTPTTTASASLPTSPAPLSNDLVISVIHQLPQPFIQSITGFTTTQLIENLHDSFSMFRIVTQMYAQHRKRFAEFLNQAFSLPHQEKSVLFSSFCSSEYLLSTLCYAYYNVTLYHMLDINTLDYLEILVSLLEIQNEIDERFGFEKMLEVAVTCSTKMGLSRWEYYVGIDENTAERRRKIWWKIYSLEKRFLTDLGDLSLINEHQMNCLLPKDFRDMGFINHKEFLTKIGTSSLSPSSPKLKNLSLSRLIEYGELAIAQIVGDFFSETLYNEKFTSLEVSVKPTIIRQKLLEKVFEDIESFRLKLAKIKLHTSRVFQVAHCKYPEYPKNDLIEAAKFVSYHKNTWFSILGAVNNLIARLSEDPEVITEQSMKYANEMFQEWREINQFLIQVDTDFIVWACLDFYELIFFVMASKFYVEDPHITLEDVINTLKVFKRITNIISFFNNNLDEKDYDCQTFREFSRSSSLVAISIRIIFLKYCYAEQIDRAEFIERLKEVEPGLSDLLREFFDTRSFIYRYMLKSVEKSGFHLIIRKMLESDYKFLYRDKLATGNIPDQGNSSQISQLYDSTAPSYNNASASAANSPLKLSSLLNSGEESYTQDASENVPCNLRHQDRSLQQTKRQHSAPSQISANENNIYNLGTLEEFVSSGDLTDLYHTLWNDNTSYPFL
# Experiment: PBM E-score (8-mer binding enrichment) (E-score (-0.5 to 0.5)); higher = stronger / more preferred TF binding; most listed sequences are background and not binding sites
# Details: protein concentration: 200 nM; construct: GST-full length
# Method: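 Universal 'all 10-mer' protein binding microarrays (Agilent AMADID 015681) probed with GST-tagged S. cerevisiae TFs (full-length or DBD) made by in vitro transcription/translation (PURExpress), about 100-200 nM. Bound TF was detected with fluorescent anti-GST. Each ungapped 8-mer (which stands for itself and its reverse complement) is scored by the PBM enrichment score (E-score), a modified Wilcoxon-Mann-Whitney statistic from -0.5 to +0.5, computed with the Universal PBM Analysis Suite. Scale: above 0.35 generally sequence-specific binding.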
row,Sequence,PBM E-score
1,GAGTTGAA,-0.114
2,CGCACGCG,0.0996
3,GAATGGGC,0.186
4,ACTAAAGG,-0.189
5,ATTCACAA,0.0868
6,CCCCTTCC,0.136
7,ATCGGTGG,-0.0892
8,ATCCGATG,0.248
9,CAGAGCAC,0.0407
10,GGGGGCAC,-0.172
11,GATCTGGC,0.0446
12,CCCATCAA,-0.05
13,TGCTGCCA,-0.11
14,CACCTTCC,0.103
15,ATTCCACA,0.204
16,AAAGTCTA,-0.209
17,GAGAACAA,0.126
18,ACTGACGC,-0.328
19,AGGACTTG,-0.156
20,GCGAAGGA,-0.0237
21,GTATAGGA,-0.334
22,GCCCCAGC,0.0198
23,AAGTTCCC,0.14
24,GGTTCCAC,0.0683
25,CGCCCGGA,0.396

row,Sequence,PBM E-score
1,CACTGCAA,-0.00781
2,CCATAAGG,-0.378
3,TAAGGTCA,-0.258
4,AATCGGCG,0.122
5,ACGTCGCT,-0.0789
6,ACGTAGAA,-0.0808
7,TGAATCAA,0.187
8,ATCATCTC,0.131
9,GTTCAACA,0.0276
10,AAACACCA,-0.176
11,ACGGCCCA,-0.0128
12,AGTTTCCG,0.452
13,CAGTCTAG,-0.304
14,ATTGGGCA,-0.131
15,CTAGGTCA,-0.289
16,ATCGCTGG,0.0359
17,GATGCAGA,-0.0128
18,CTAACGAG,-0.0664
19,CCTGAACG,0.0206
20,CCAACCGA,0.0531
21,AGGCCCCA,-0.0982
22,ACCCCTAA,-0.0694
23,ACAAAGGT,-0.151
24,ACAAACGT,-0.179
25,ACACACAA,-0.0133

row,Sequence,PBM E-score
1,CGAGCGCC,0.0241
2,CGAGGACC,-0.0343
3,AGCTGAGG,-0.197
4,CCGGTTCG,0.217
5,AGCCATGC,-0.014
6,AGATGGGG,-0.176
7,AACTTAGA,-0.11
8,ACGAGCGT,-0.222
9,CGTCTGGA,-0.183
10,AGCTCACA,-0.0998
11,CACTAGAC,-0.00252
12,ACTGCTAA,-0.221
13,ATAGTGCA,0.0132
14,GGATCCTA,0.115
15,AGCTTTAT,-0.248
16,AAATAGCA,-0.193
17,GACATTGA,0.155
18,CCATCCAG,-0.116
19,CTCGCGGA,0.265
20,ATTTCCAA,-0.113
21,ATGTCGGG,0.142
22,CAGATCGA,-0.162
23,AGGCCGAG,0.193
24,TGGCTGAA,-0.118
25,GCACGAAC,0.00062

row,Sequence,PBM E-score
1,GGAATCAC,0.251
2,CCATCTAA,-0.0762
3,AGAGCACG,-0.0259
4,AACACTAA,-0.125
5,AACAACTG,0.00536
6,GGAAATGA,0.214
7,GATAAGGA,0.00205
8,AATCACGT,0.0816
9,CGCTAGCA,-0.126
10,ATAATGCC,0.205
11,TACTCTGA,-0.188
12,CATTTCCC,0.203
13,CGTCCTAA,-0.14
14,GCGTGCAC,0.0796
15,CGCGTTAC,0.034
16,GACCTAGA,-0.115
17,CATAACGG,-0.0713
18,GTTAAAAC,-0.0999
19,TTCTAAAA,-0.0694
20,AAGATGCC,0.0564
21,CTCCAAAG,-0.182
22,AGGGGAAC,-0.0871
23,ACTTTAGC,-0.0115
24,CCTACTCG,0.101
25,CATAAACC,0.0229

row,Sequence,PBM E-score
1,AGGTATGG,0.0193
2,ATGTCTAC,-0.213
3,AAAAAACT,-0.245
4,GATACATC,-0.101
5,ATGTTGGA,0.167
6,GCTTTCCA,-0.0892
7,GGTTTTCA,0.0386
8,AAAATACA,-0.0643
9,CGAATAGC,-0.149
10,GAAGGGCA,0.0377
11,CAGTCACC,-0.156
12,ACCTTGTG,-0.065
13,ATAACAAA,0.0706
14,AGACAGGG,-0.102
15,ACAACTTA,-0.111
16,GTCCGTTA,0.321
17,AAGTAGCA,-0.142
18,CCTGTCAG,-0.145
19,ACTGCGCC,-0.225
20,ATGGAACC,0.0373
21,ACGGGTCT,0.0949
22,AGGATTTC,0.114
23,CTTCCTGC,-0.232
24,CAGTGCTA,0.0103
25,AAATTAAG,0.0725

row,Sequence,PBM E-score
1,CTATAACC,-0.218
2,CCATGCGG,0.15
3,AGTTATTA,-0.0901
4,AGCCTGTG,-0.265
5,ATCTCTAC,-0.135
6,CACTGCCG,0.255
7,GACTTTAA,-0.137
8,GTCATGCA,0.00118
9,CCCCCACG,-0.191
10,ACATCGGA,0.184
11,CATCTGTC,0.0352
12,CCAGTCCA,-0.0149
13,CCCAAATC,-0.122
14,AACAGGAA,-0.218
15,AGCAGGTC,-0.0101
16,AGACTGCA,-0.408
17,CCAGGATC,0.0238
18,ATCACTCG,-0.0866
19,AGCTGCAG,0.109
20,GTTTTAGA,-0.0726
21,CCTAAAGG,-0.204
22,GCTCCTTA,-0.0521
23,TCGCCCCA,-0.0315
24,AACTACGA,-0.109
25,AAGCACTA,-0.144

row,Sequence,PBM E-score
1,CACTAGGA,-0.203
2,TATTGGCA,-0.0348
3,ATGTTAGA,-0.318
4,CTATTATA,-0.0347
5,CCACTACC,-0.0383
6,GGAGCGCC,0.085
7,CCTCCGAC,0.0584
8,CCCGAGCC,0.265
9,CTAACACA,0.0909
10,CTCTTTGC,-0.125
11,AACAGTTC,0.117
12,GTTAACAA,0.0822
13,CGGTGCAG,0.0425
14,ACCTCTAC,0.0123
15,GGACCCCA,0.0742
16,GAGAGGTA,-0.195
17,CAACTTTC,0.15
18,GTAGATTA,0.194
19,CTAGACAC,-0.152
20,ATAGGCTA,-0.124
21,CCTAATTC,-0.0229
22,TGCAGGAA,0.0197

# Reference: the supplement of paper PMC3334620
